# Reference: the supplement of paper PMC4996465
# Viability of KB3-1 and Nalm-6 cells after 48 h of drug alone (CellTiter-Glo), 11 doses over about 4.5 log units. % of DMSO wells, lower = more cell loss; AC50 from the fitted curve, lower = more potent. No active / inactive call. Nalm-6 was screened in two runs. AC50 is listed only for well-fitted inhibitory curves. KB3-1 is a HeLa-derived carcinoma line, Nalm-6 a B-cell precursor leukaemia line.
# Assays:
# Nalm-6 [1] = assay: log AC50 of viability decrease (48 h) (log10 M); higher = less potent
# Method: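 Eleven-dose screen of the NCATS MIPE 3 library on cells without co-treatment; CellTiter-Glo after 48 h. AC50 from the curve fit; only inhibitory curves of the better fit classes are listed.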
# Nalm-6 [2] = assay: viability (% of DMSO control); higher = more viable cells
# Method: (§1)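 Eleven-dose screen of the NCATS MIPE 3 library on cells without co-treatment; CellTiter-Glo after 48 h, as % of DMSO wells.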
# KB3-1 = assay: as above
# Method: as §1
Compound,log AC50 of viability decrease (Nalm-6 [1]; run: 1),log AC50 of viability decrease (Nalm-6 [1]; run: 2),"viability (Nalm-6 [2]; run: 1, 0.00078 µM) [%]","viability (Nalm-6 [2]; run: 1, 0.00234 µM) [%]","viability (Nalm-6 [2]; run: 1, 0.00702 µM) [%]","viability (Nalm-6 [2]; run: 1, 0.0211 µM) [%]","viability (Nalm-6 [2]; run: 1, 0.0632 µM) [%]","viability (Nalm-6 [2]; run: 1, 0.19 µM) [%]","viability (Nalm-6 [2]; run: 1, 0.569 µM) [%]","viability (Nalm-6 [2]; run: 1, 1.71 µM) [%]","viability (Nalm-6 [2]; run: 1, 5.12 µM) [%]","viability (Nalm-6 [2]; run: 1, 15.4 µM) [%]","viability (Nalm-6 [2]; run: 1, 46.1 µM) [%]","viability (Nalm-6 [2]; run: 2, 0.00078 µM) [%]","viability (Nalm-6 [2]; run: 2, 0.00234 µM) [%]","viability (Nalm-6 [2]; run: 2, 0.00702 µM) [%]","viability (Nalm-6 [2]; run: 2, 0.0211 µM) [%]","viability (Nalm-6 [2]; run: 2, 0.0632 µM) [%]","viability (Nalm-6 [2]; run: 2, 0.19 µM) [%]","viability (Nalm-6 [2]; run: 2, 0.569 µM) [%]","viability (Nalm-6 [2]; run: 2, 1.71 µM) [%]","viability (Nalm-6 [2]; run: 2, 5.12 µM) [%]","viability (Nalm-6 [2]; run: 2, 15.4 µM) [%]","viability (Nalm-6 [2]; run: 2, 46.1 µM) [%]",viability (KB3-1; 0.00078 µM) [%],viability (KB3-1; 0.00234 µM) [%],viability (KB3-1; 0.00702 µM) [%],viability (KB3-1; 0.0211 µM) [%],viability (KB3-1; 0.0632 µM) [%],viability (KB3-1; 0.19 µM) [%],viability (KB3-1; 0.569 µM) [%],viability (KB3-1; 1.71 µM) [%],viability (KB3-1; 5.12 µM) [%],viability (KB3-1; 15.4 µM) [%],viability (KB3-1; 46.1 µM) [%]
Cc1nn(Cc2ccccc2Cl)c(C)c1CN(C)CC(O)COc1ccc(Cl)cc1 (stereo not given),-4.58,-4.58,102,100,102,108,103,107,111,110,92.6,92.4,0.212,105,104,106,106,100,103,110,108,101,91.9,0.22,88,98.1,94.2,93.3,95.2,87.5,95.8,95.3,92.4,94.7,15.4
COc1cc(C)c(Sc2cnc(NC(=O)c3ccc(CNC(C)C(C)(C)C)cc3)s2)cc1C(=O)N1CCN(C(C)=O)CC1 (stereo not given),-4.93,-4.83,101,110,105,99.9,108,110,103,89.5,50.4,45.2,1.53,108,110,107,109,96.3,109,104,90.6,64.3,52.7,2.53,100,101,99.2,101,99.5,98.2,29,88.2,25.3,20,47.1
CS(=O)(=O)c1cccc(CNc2nc(Nc3ccc4c(c3)CCC(=O)N4)ncc2C(F)(F)F)c1,-5.83,-5.33,100,92.9,96.7,104,114,116,99,63.6,44,33.1,122,112,113,119,116,114,111,108,80.7,73.2,44.8,109,97.7,108,97.1,101,103,95.9,93.8,93.7,83.3,72.8,114
C[C@H]1CN(C[C@@H](C)O1)CC(=O)NC2=CC=C3SC4=C(CC3=C2)C=CC=C4\C5=C\C(=O)\C=C(/O5)N6CCOCC6,-4.68,-4.78,101,102,97.1,110,102,104,111,94.7,83.8,75.3,10.6,105,101,107,109,111,111,114,111,96.6,54.7,3.03,96.5,96.4,97.7,98.5,97,98.1,99.7,95.9,93.3,91.7,41.7
